# Laboratory results from the supplement of paper PMC12217912.
# Some of the results follow. Sequences were assembled here from the parent chain. Inactive controls read about 0.05.
# B1: TEV protease; numbered along this chain (parent)
# chain: MGESLFKGPRDYNPISSSICHLTNESDGHTTSLYGIGFGPFIITNKHLFRRNNGTLVVQSLHGVFKVKDTTTLQQHLVDGRDMIIIRMPKDFPPFPQKLKFREPQREERICLVTTNFQTKSMSSMVSDTSCTFPSGDGIFWKHWIQTKDGQCGSPLVSTRDGFIVGIHSASNFTNTNNYFTSVPKNFMELLTNQEAQQWVSGWRLNADSVLWGGHKVFMVKPEEPFQPVKEATQL
# Variants of: B1
# Experiment: raw area under fraction-flipped curve 0-4 h after induction (AUC4h, not background-subtracted), DNA-recorder readout of cleavage of the substrate (dimensionless); higher = more cleavage of the substrate by the protease variant
# Details: temperature: 34 °C; time window: 0-4 h after rhamnose induction
# 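Note: Bxb1 expression induced with 0.2% (w/v) L-rhamnose at OD600 near 0.5, cultures sampled hourly, flipped fraction per protease–substrate barcode pair counted by paired-end Illumina sequencing.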
Variant,area with substrate ENLYFES,area with substrate ENLYFHS,area with substrate ENLYFIS,area with substrate ENLYFPS,area with substrate ENLYFSS,area with substrate ENLYFTS,area with substrate ENLYFWS,area with substrate ENLYFKS,area with substrate ENLYFLS,area with substrate ENLYFMS
T71H,0.0641,0.0568,0.0505,0.0665,0.0625,0.0555,0.062,,,
I139H,,0.0636,0.0593,0.0553,,0.0417,0.0553,0.0551,0.0337,0.0399
Q151F,0.0601,,,,,0.0556,,,,
F173R,0.0774,,,0.057,,,0.0466,0.0693,0.0617,0.051
F173Q,,,,0.0702,0.0651,,,0.0692,0.0544,0.0738
K7E,,,0.0607,,,0.0593,,0.0653,,0.0751
C131R,0.0838,,0.0382,0.0594,,0.0589,,0.0673,,0.0596
F101Y,0.0505,,0.0547,,,0.0507,0.0543,,,
F101D,0.0438,,,,,,0.0544,,,
E223G,,,0.0654,0.0671,,0.0689,,,,
D161P,,,0.0515,0.0415,,0.0228,,0.0307,,0.0518
G213N,,0.0571,,,,0.0646,,,,
I145P,0.0563,0.0532,,,,,0.0815,,,
S171T,,,0.0508,,0.0642,0.0037,0.0543,0.0476,,0.0482
T174V,,,,0.0701,,,,0.0524,,0.0606
Y34E,0.0575,,0.0573,0.0628,0.0554,,,0.0299,,
Y34W,,,0.0664,,0.0487,,,,,
Y34K,,,0.0612,0.0556,0.069,,,,,
T115V,0.0591,0.05,0.0566,0.0673,0.0786,0.0644,,0.0678,,0.0658
T115S,,0.0682,0.0666,0.0631,,0.08,0.0698,0.0606,,0.0614
P228E,,,0.0546,0.044,0.0746,,,0.0872,0.0738,0.0682
P228A,0.0641,,,0.0601,,0.0554,0.0536,,,
A207L,0.0482,,0.0571,0.0627,0.0595,,0.0591,,,0.0636
P225S,,0.043,0.0591,0.0636,,,,0.0971,,
Q97K,,,0.0536,,,,,,,
N193D,,,0.0471,,,,,,,0.0874
E231P,0.0925,,0.053,0.0608,0.0577,,,0.0445,,0.0804

# Same assay, conditions: temperature: 34 °C; time window: 0-4 h after rhamnose induction
Variant,area with substrate ENLYFNS,area with substrate ENLYFRS,area with substrate ENLYFGS,area with substrate ENLYFYS,area with substrate ENLYFFS,area with substrate ENLYFVS
I139H,0.0674,0.0706,,,,
Q151F,,,0.058,,,
F173R,,,,0.0456,,
F173Q,0.0608,,,,,
K7E,,0.0513,,,,
C131Y,,,,,0.0706,
C131R,,0.0481,,,0.0816,0.0499
F101Y,,0.0558,,,,
F101D,,,,0.0431,0.0391,
E223G,,,,,,0.0581
D161P,,,,,,0.0081
G213N,,,0.079,,,
I145P,0.0607,0.0548,,,,
T174V,0.0626,,,,,
Y34E,0.0637,,,,,
Y34W,0.0853,,,,,0.0501
Y34K,0.0561,0.0684,,,0.0794,0.0441
V200R,,,,0.0449,,
T115V,,,0.0613,0.0594,0.07,
T115S,0.0538,,,0.0521,0.0691,0.0642
P228E,,0.0718,,,0.0735,0.0655
P228A,,,,,,0.0613
A207L,,0.0425,,,0.0691,
P225S,,,,,0.0489,0.0363
N193D,0.0641,,,,,0.0345
E231P,0.0464,,,0.0666,0.0575,
